Source: the RNAGym collection of RNA variant scans (doi:10.7554/elife.90254)
Read counts are not given, so values of variants with three or more changes are uncertain.

B1: LINE1-full (parent)
chain: UACGUAGGUGGUUUUCCCCUGAUAGUGCUAAGGGGGCCUGGAAGUUUGGACUGGGCAGAGCUCAACACAGCGUGGCAAAGUGGCUGUGGCUAGACUGCCUCUCUGGAUUCCUCGUCACUCAGCAGGGCAUCUCUGAGAGAAAUGCC

Variants of: B1
Test: self-cleavage, relative activity (ratio to wild type); higher = more cleavage; in vitro, sequencing; the parent is a self-cleaving ribozyme

Row | Variant | self-cleavage
1 | A31U A78G U91C A142G | 0.45
2 | A2U A22G A59U U100C A117U | 1.98
3 | U52A A79G U109C A136G | 1.58
4 | A69U U100C A136U | 0.03
5 | A22G A69C A136U | 0.33
6 | U29C U46C U104C | 0.61
7 | U14C G40U C63U | 0.31
8 | U13C U85C U96A A117U A142C | 0.08
9 | C95U A136G U143C | 0.42
10 | U1C U47G U115C | 0.12
11 | U1C C37U U45A A50G G75A U85A A142G | 0.07
12 | C19U A59U A142G | 0.77
13 | U52A A64G U108C G114C A121G | 0.41
14 | U14C A43G U87C U143C | 0.45
15 | U52C A65G A67G | 0
16 | U14C A43G A117U | 2.17
17 | U20A C61U A141G | 0.05
18 | U13C A69G U134C | 0.75
19 | U13C U23C A140C | 1.37
20 | U29A G54A U73C | 0.42
21 | U46C A77G G127A A140G | 1.95
22 | U5C U39A U102C U132A G144A | 2.21
23 | U1A U9C A42G U81A G93U | 0.16
24 | U26A A94G U104C | 0

Row | Variant | self-cleavage
25 | U46C A64G U73A C145U | 0.46
26 | A67G G93U U102C A140G | 0.04
27 | U15C U47C U96C | 0
28 | U15A A67G A77G | 0
29 | A42G C56U U62C U100A G122U A124U | 0.04
30 | A57G G75C A140G | 0.14
31 | U13A G33A A94G | 0.19
32 | A50U A64U A67G A94U U104C | 0.08
33 | G89U U132C U134G | 0.02
34 | U14C A64G U96A | 0.07
35 | U20A U115C U130C A140G | 1.53
36 | U5A U46C U100A C111U U130A A142G | 1.44
37 | U14A U96C A107U U115C | 0.26
38 | A57G A78G U81C | 0.92
39 | C19U U45C A50G A78G | 0.97
40 | A22G U39G A59U A79G U134C | 1.84
41 | U96C U104A U109A U112A A140C | 0.04
42 | A69U U100C U132C | 0.1
43 | U47A A64U U81C C131A U132C | 0.45
44 | C19A A138G U143A | 1.28
45 | U5C U9C U96A | 0.12
46 | U12C U14A U26A A59G A67G A77U | 0.14
47 | U9C U12G A94G U102C C116U A140G | 0.48
48 | U14C G33A A43G U62C U108C | 0.1

Row | Variant | self-cleavage
49 | G4A A30G A78G G126A U132C A142G | 1.06
50 | U15C A57G A140G | 0.83
51 | A6G A43G A64U U130C | 0.57
52 | U73G A77G U112A U115C | 1.23
53 | U13C A77G U112A | 1.53
54 | U12C A31G U47C C99A U104C | 1.02
55 | G44U U73C U96C A129U A141G | 0.14
56 | A22G U46C A50G U96A U100C | 0
57 | U39A U46C U47C | 1.18
58 | A22U G34C A43U U52C A67U | 0.21
59 | A64U U112A A136G | 0.53
60 | U1C U20G U47A A94G U115C | 0.24
61 | U13C A77G A124G | 1.41
62 | G21C A117U A129U | 1.3
63 | U46C U62C A107G A124U | 0.26
64 | A2G U62A A64G A136U | 0.08
65 | U12C U26C G33A A67U A77U | 0.14
66 | U1A U14C A64U C99U A124U | 0.3
67 | U14C G44A A136G A140G | 0.84
68 | U45C A136G A142G | 2.19
69 | A22G G32A A59G | 0.11
70 | U13C U29A U102C U112C | 1.26
71 | A22G U39C A43G A141G | 1.42
72 | A2G C16A A65U C113G A129C | 0.16

Row | Variant | self-cleavage
73 | U45A C66U G74U A117U | 0.02
74 | A22G U26C A64G | 0
75 | A57G A69G U100C A142G | 0
76 | U46A G60A U112A | 0.03
77 | A24G G41U U87C U102C A129U | 0.37
78 | U23C U26G U130C A140G | 0.37
79 | U9C A78G U87C U100C C113U U130C A138G | 0
80 | A59G U100C A141G | 0.13
81 | U1A G35A U143G | 0.93
82 | U47A A50G A78G G127A | 0.42
83 | A30G U104A A124U | 1.41
84 | G4U G70U G114A | 0.06
85 | G32U G53U U73C | 1.18
86 | G10U A42G U47C U73A | 0.98
87 | U15C A43G A65G C84U U102C A140G | 0
88 | U45C U62C U91C | 0
89 | U15C A107G A142G | 2.04
90 | A43G U52C G72U A77U | 1.07
91 | U9A U29C A142G | 1.69
92 | U15A A24G U109C G135A | 1.08
93 | U62A A69G A138U | 0.2
94 | A22G U46C U115A | 1.99
95 | G70A U130A A138U | 0.15
96 | U12C U73A A124C | 2.3

Row | Variant | self-cleavage
97 | U13G A67G U96C | 0
98 | U62C A94U U104C | 0.03
99 | U15C G75U U87C U130C | 0.15
100 | U15A A30G A140G C145U | 1.12
101 | U14C A31C A59U | 0.84
102 | U112C A138G U143C | 2.11
103 | U5A A6G A77G U100C G125U | 2.92
104 | U9C U85C A92G A121U U132C A138U | 0
105 | C84U U102A U108C A129U | 0.16
106 | A64U U112A U132C | 0.59
107 | U91C A92U U143C | 0.37
108 | G32A A78G U96A | 0.06
109 | U14C A79G G114A C145A | 0.89
110 | U46C A79G U115C | 0.77
111 | G60A U73C A121G | 0.08
112 | A65G C68U A79G U85C | 0.07
113 | A22G U39C U46C G126A | 1.07
114 | A59G A64U A78G U102C A141U | 0.06
115 | A31G A64U U115C U130C | 1.31
116 | G8A A30G A107G A140C | 0.51
117 | A92G C113U U119A | 0.15
118 | U14G A79G A107G | 1.39
119 | U102C G114U G144A | 1.47
120 | U12C A57G A69U U96A | 0

Row | Variant | self-cleavage
121 | U45G A59G A69U | 0.09
122 | U39A A57G A140G | 0.75
123 | U46C A77G G127A | 1.54
124 | A22U A121U U132C U134A | 0.88
125 | U73C G89U U96G U115G | 0
126 | U9A U14C U23C A30G G33A A79C | 0.61
127 | A64U A92G U104C | 0.26
128 | A124G U132A A142G | 0.9
129 | U14C U100C U119C | 1.84
130 | G10A A50U U62C U91C U100C | 0
131 | U100A A136G A140U | 1.21
132 | U9A A64C A67G U81A A129G | 0
133 | U39C A67G G97U A124G | 0
134 | A65U U119A A140G | 0.14
135 | U5C A24G U62C | 0
136 | U1C U23C G72A U132A | 0.78
137 | U15C U26A U62C U73A | 0.06
138 | G58U U100C A117G | 0.1
139 | U13C U52G A129U U132A | 1.56
140 | A69U A107G G144U | 0.05
141 | C56A G93A A141G | 0.03
142 | A59G U96C U102C | 0.24
143 | U5C U20G A59G | 0.31
144 | G8A U46C U132C | 1.82

Row | Variant | self-cleavage
145 | U12G G32C A94G | 0
146 | U12C A50G A57U | 0.39
147 | U39G U81C G88A A94G | 0
148 | A69G U96A U143C | 0.03
149 | A77G A94U C111U A140G | 0.53
150 | U13C C37G U85C | 0.17
151 | U15C C28A U87A A140G | 0.14
152 | U39A A64U A94G | 0.1
153 | U46A U109C U112A | 1.24
154 | U26A A64G G82A A140U | 0.29
155 | G33U A64G A69U A77U A129U | 0.05
156 | U15C U39C U104A | 0.71
157 | U9C U52C C71U A138U A140G | 0.47
158 | U14C G34U A79G U109C U115C | 0
159 | U5C G70U U73A U104A U108C | 0.05
160 | U13C U39C A43U U85A U130C | 0.14
161 | A22U U45C U52A U81A | 2.14
162 | A22G U47C G105A | 1.02
163 | G33U A69U U143C | 0.04
164 | A65G A77G C113A | 0.1
165 | G93A U100C U108C G127U | 0
166 | G72A U119A A140G | 1.46
167 | U26C U47A U109C | 0.72
